# Measurements: PubChem BioAssay AID1345083 (National Center for Advancing Translational Sciences (NCATS), 2018)
# The campaign covered roughly 94,000 compounds. About 6,200 (6.6%) were called active. Inconclusive results, whose numbers are uncertain, are shown with a selection of clear calls. Calls come from the whole dose curve; as a rule, active = well fitted inhibition curve with a large enough effect; inconclusive = small, poorly fitted or top-dose-only effect; inactive = flat fitted curve, though single readings scatter. Potencies of inconclusive entries are doubtful fits and often do not repeat.
# Assay: Cytotoxic Profiling in HEK 293 Cell Line of Diverse Libraries Using Quantitative High-Throughput Screening; note: nearly all actives have a fitted effect of over 60% in size
# Conditions: HEK 293 viability, ATP luminescence (CellTiter-Glo), 48-72 h; activity change, negative = cytotoxicity: at 115 µM (top of the series) unless noted; series mostly up to 115 µM
# Method in brief: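 Cells seeded first (HEK 293, 250 cells/well), then compound added by pintool. Incubation ran 48 or 72 hr at 37 degree Celsius. CellTiter-Glo was added and luminescence imaged after 10 min at room temperature.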
# % is set by controls: 0 for no effect and ±100 for the full control effect; potency is the fitted concentration of half-maximal effect; tags give direction and shape of the fitted curve.
Compound,Potency,"activity change, negative = cytotoxicity",outcome
O=C(NCCC1COc2ccccc2O1)c1ccc(N2CCCOCC2)nc1 (configuration not stated),"inconclusive: 89.1 µM [inhibitor, single point]",,
COc1cccc(CC(=O)Nc2cccc(-c3nnc4n3CCCC4)c2)c1,"inconclusive: 79.4 µM [inhibitor, single point]",,
COc1cccc(CN2CCCC(c3nc(CCOc4cccc(C)c4)no3)C2)c1 (configuration not stated),"inconclusive: 79.4 µM [inhibitor, single point]",,
Cc1sc2ccn(Cc3ccc(F)cc3)c(=O)c2c1C(=O)NCCCN1CCOCC1,"inconclusive: 25.1 µM [inhibitor, full curve]",,
O=C(NCCc1ccccn1)c1cn2ccnc(-c3ccccc3)c2n1,"inconclusive: 79.4 µM [inhibitor, partial curve, poor fit]",,
CC[C@H]1CN(C(=O)c2ccnc(Cl)c2)CC[C@H]1CC(=O)O,,inactive: 1.99% [at 172 µM],
CCn1cc(-c2cc3c(cn2)CN(Cc2cccnc2)CCN3)cn1,"inconclusive: 126 µM [inhibitor, single point]",,
CCOC(=O)N1CCC(=O)N(Cc2ccccc2)Cc2cc(OC)ccc21,"inconclusive: 79.4 µM [inhibitor, partial curve, poor fit]",,
COc1ccc(-c2cc3c(nc2-c2ccccc2)nc(C(=O)NCCN(C)C)n3C)cn1,"inconclusive: 89.1 µM [inhibitor, partial curve]",,
Cc1ncsc1CN1CCCCCCNC(=O)[C@@H]2C[C@@H](C(=O)N3CCc4ccccc4C3)C[C@@H]21,active: 89.1 µM,,
CC(C)NC(=O)c1cc(-c2cccc(C(F)(F)F)c2)c2cccn2n1,active: 35.5 µM,,
CCCNC(=O)N(C1CCOCC1)C1CCN(C(=O)c2cnccn2)CC1,,inactive: -0.491%,
O=c1n(-c2ccc(Cl)cc2)nc2n1CCN(Cc1cccc3ccccc13)C2,,inactive: -25.2%,
CC(C)N1CC(C(=O)NCCc2ccccc2F)NC1=O (configuration not stated),,inactive: 0.0203% [at 172 µM],
CC(C)(C)c1nnc2n1C(C(=O)NCCc1ccc(Cl)cc1)CC2 (configuration not stated),,inactive: -0.53%,
COc1ncccc1-c1cnc2[nH]cc(CC(=O)Nc3ccccc3C)c2c1,"inconclusive: 28.2 µM [inhibitor, full curve, poor fit]",,
COc1ccccc1-c1cc(C(=O)Nc2ccc(F)cc2)nn2cnnc12,"inconclusive: 79.4 µM [inhibitor, partial curve, poor fit]",,
COc1ccc(C2Cn3nnc(-c4nc(C)no4)c3CO2)cc1 (configuration not stated),,inactive: -10.5%,
CCc1cccc(C)c1NC(=O)Cn1ccn2nc(-c3ccc(F)cc3)c(CO)c2c1=O,"inconclusive: 35.5 µM [inhibitor, partial curve, poor fit]",,
COC(=O)NC1CCCN(c2ccc3nnc(C)n3n2)C1 (configuration not stated),,,inactive [at 172 µM]
Cc1cc(C(=O)NC2CCc3nnc(C4CC4)n3CC2)no1 (configuration not stated),"inconclusive: 89.1 µM [inhibitor, single point]",,
CC(C)(C)COC(=O)N1C[C@@H](CO)[C@@H]2Oc3ccccc3[C@@H]21,"inconclusive: 50.1 µM [inhibitor, partial curve, poor fit]",,
CCCCOC(=O)N1C[C@@H](C(=O)OCC)[C@@H]2Oc3cc(OC)ccc3[C@@H]21,"inconclusive: 89.1 µM [inhibitor, single point]",,

Compound,Potency,"activity change, negative = cytotoxicity",outcome
CC1(c2ccccc2)N(Cc2cccnc2)C(=O)OC12CCN(C(=O)C1CCC1)CC2 (configuration not stated),,inactive: -15.1% [at 172 µM],
COc1ccc(NC(=O)c2cc3c(N(C)Cc4ccccc4)nc(C)cn3n2)cc1OC,"inconclusive: 35.5 µM [inhibitor, full curve, poor fit]",,
CC(C)Oc1cccc(-c2n[nH]c3c2CC(=O)N(Cc2ccccc2)C3)c1,,inactive: -22.1% [at 172 µM],
COc1ccccc1-c1cc2c(ccn2CC2CCN([S+](C)(=O)[O-])CC2)c(N2CCOCC2)n1,"inconclusive: 44.7 µM [inhibitor, partial curve, poor fit]",,
Cn1nnc(-c2ccc(C(=O)N[C@H]3C[C@@H]4OCC[C@H]34)cc2)n1,,inactive: -8.99%,
Cc1ccc(C(=O)N2CCN(c3ccc4nnc(-c5ccccc5)n4n3)CC2)cc1,"inconclusive: 79.4 µM [inhibitor, partial curve, poor fit]",,
CCOC(=O)C1=CN(CC(=O)NCc2ccc(Cl)cc2)S(=O)(=O)N=C1C,"inconclusive: 89.1 µM [inhibitor, single point]",,
COc1ccc(-c2[nH]ncc2CNC(=O)C(c2ccccc2F)N(C)C)cc1 (configuration not stated),"inconclusive: 35.5 µM [inhibitor, full curve, poor fit]",,
O=C1CO[C@H]2CCN(Cc3ccccc3F)CC[C@@H]2N1c1ccccc1,"inconclusive: 89.1 µM [inhibitor, partial curve, poor fit]",,
O=C(c1ccccc1)N1CCC(N2C(=O)C(OCC3CC3)C23CCCCC3)CC1 (configuration not stated),"inconclusive: 50.1 µM [inhibitor, partial curve, poor fit]",,
COc1ccc(NC(=O)N[C@@H]2C=C[C@@H](c3c(C)nn(-c4ccc(C(C)(C)C)cc4)c3C)C2)cc1,active: 31.6 µM,,
O=C(NCC1CCOC1)C1CCN(c2nc(-c3ccccc3)nc3c2CCC3)CC1 (configuration not stated),"inconclusive: 56.2 µM [inhibitor, partial curve, poor fit]",,
Cc1cn2nc(-c3nc(C4CCCN(C(=O)c5cccc(Cl)c5)C4)no3)cc2c(=O)[nH]1 (configuration not stated),"inconclusive: 50.1 µM [inhibitor, partial curve, poor fit]",,
COc1ccc(N2CC(C(=O)N3CCC(C(=O)N4CCC(C#N)CC4)C3)NC2=O)cc1 (configuration not stated),,,inactive
Cc1ncoc1C(=O)N1CCCCCC1c1nnc(-c2ccccc2)o1 (configuration not stated),,inactive: -14.2%,
CCOC(=O)CN1C(=O)CN(C(=O)c2cc3ccccc3s2)CCC(OC)c2ccccc21 (configuration not stated),"inconclusive: 100 µM [inhibitor, single point]",,
O=C(CC1=C2CCCCC2N(Cc2ccccc2)C1=O)NCc1ccncc1 (configuration not stated),"inconclusive: 89.1 µM [inhibitor, single point]",,
Cc1ccc(CNC(=O)Cn2c(C)ccc(NS(=O)(=O)c3ccccc3)c2=O)cc1,,inactive: -15.9%,
CC1(C(=O)NCc2cccc(Cl)c2)CCc2cnc(N3CCOCC3)nc21 (configuration not stated),"inconclusive: 100 µM [inhibitor, partial curve]",,
O=C(c1ccoc1)N1CCCC(CN2CCOCC2)CC1 (configuration not stated),,inactive: 3.33%,
O=C(NCCC1CCN(C(=O)Nc2ccc(F)cc2)CC1)c1ccc(F)cc1,,inactive: 2.29%,
CC(=O)Nc1ccc(C2(C(=O)N3CCC(N4CCCCC4)CC3)CCCCC2)cc1,,inactive: -23.2%,
O=c1cc(-c2ccncc2)oc2c(-c3ccccc3Oc3ccccc3)nccc12,"inconclusive: 79.4 µM [inhibitor, partial curve]",,

Compound,Potency,"activity change, negative = cytotoxicity",outcome
COc1ccccc1CNC(=O)C1CCc2ncc(-c3ccsc3)n2C1 (configuration not stated),"inconclusive: 100 µM [inhibitor, single point]",,
O=C(CCc1ccc(CC2CCN(Cc3c[nH]c4ccccc34)CC2)cc1)N1CCCC1,active: 35.5 µM,,
CC(C)CNC(=O)[C@@H]1CCCN1c1nccc(Nc2ccccc2Cl)n1,"inconclusive: 39.8 µM [inhibitor, partial curve, poor fit]",,
Cc1cccc(C(=O)N2CCCCCC2c2nc(-c3cccnc3)no2)c1 (configuration not stated),"inconclusive: 31.6 µM [inhibitor, partial curve, poor fit]",,
O=C(c1coc(COc2ccc(F)cc2Cl)n1)N1C[C@H]2CC[C@H]1C2,,inactive: -21.3%,
CC(C)(C)N1CC(C(=O)NCCCc2ccc(Cl)cc2)CC1=O (configuration not stated),"inconclusive: 56.2 µM [inhibitor, partial curve, poor fit]",,
Cn1cnc2cc(-c3cccc(F)c3)cc(C(=O)NCc3cccnc3)c21,"inconclusive: 112 µM [inhibitor, single point]",,
O=C(NC1CCCCC1)N1CCCC(c2noc(COc3ccccc3F)n2)C1 (configuration not stated),"inconclusive: 56.2 µM [inhibitor, partial curve, poor fit]",,
CCCc1nnc([C@H]2CCN(C(=O)c3ccccc3)C2)o1,,inactive: -20.9% [at 230 µM],
COC(=O)CNC(=O)c1cc(-c2ccccc2OC)c2cccn2n1,,inactive: -24.1%,
COCCCNC(=O)C1c2ccccc2C(=O)N(C2CCCCC2)C12CCCCC2 (configuration not stated),"inconclusive: 44.7 µM [inhibitor, partial curve, poor fit]",,
COC(=O)c1cc2n(n1)CCCN(C(=O)C1CCCCn3nnnc31)C2 (configuration not stated),,inactive: -4.63%,
c1ccc(-c2ccc3ncc(Nc4ccc(N5CCOCC5)cc4)n3n2)cc1,"inconclusive: 89.1 µM [inhibitor, partial curve]",,
c1ncnc(NCC2(N3CCOCC3)CCCCCC2)n1,,inactive: -7.49%,
CCC(c1cccs1)N1C(=O)[C@H]2CN(S(=O)(=O)c3cc(F)cc(F)c3)C[C@H]2C1=O (some centres not stated),"inconclusive: 89.1 µM [inhibitor, single point]",,
O=C(CC(c1ccccc1)c1cccc(Cl)c1)NC1CCC(O)CC1 (configuration not stated),"inconclusive: 89.1 µM [inhibitor, single point]",,
CC(=O)NC1CCN(C(=O)c2coc(COc3ccc4c(c3)OCO4)n2)C1 (configuration not stated),,inactive: -6.13%,
Cc1cc(C(=O)N2CCC(N3C[C@H](Oc4ccccc4)[C@@H]3c3ccncc3)CC2)n(C)n1,"inconclusive: 17.8 µM [inhibitor, full curve, poor fit]",,
COCC1CN(C)CC12CCN(Cc1ccc(F)c(Cl)c1)CC2 (configuration not stated),"inconclusive: 79.4 µM [inhibitor, partial curve]",,
CN1C(=O)[C@@H]2C[C@@H](CN2Cc2ccc(Cl)cc2)Oc2ccccc21,"inconclusive: 112 µM [inhibitor, partial curve, poor fit]",,
COc1cccc(CC(=O)N2CC(Oc3ccc(-c4noc(-c5ccncc5)n4)cc3)C2)c1,active: 12.6 µM,,
